# PubChem BioAssay (Tox21)
# Several values for one entry are separate records, joined by “and”; a condition that tells them apart may be missing. Equal values may be shown once. Inconclusive results, whose numbers are uncertain, are shown with a selection of clear calls. For some of these results: Potencies of inconclusive entries are doubtful fits and often do not repeat. Activity calls are given as the source filed them. Unless noted, the call rests on the fitted dose curve; in most records, active means well fitted curve in the direction sought with a large enough effect in the repeat runs; inconclusive means weak or mixed curves; inactive means no such curve, though single readings can be large; an effect the other way counts as inactive or inconclusive.
# Tests used:
# [1] = target: Estrogen receptor beta (Homo sapiens) (UniProt Q92731); assay: qHTS assay to identify small molecule agonists of the estrogen receptor beta (ER-beta) signaling pathway (AID 1259377; active means well fitted activation curve with a large enough effect in the signal ratio in the repeat runs, not every such curve was filed as active; inconclusive means weak or mixed curves, or effect the other way; the % refers to the signal ratio; further: potency means the concentration at half of the fitted maximal effect; on activation: on the % scale 0 is the no-effect control and ±100 the full control effect); settings: ER-beta-UAS-bla HEK293T, beta-lactamase FRET ratio, 16 h; activation: at 92.4 µM (top of the series) unless noted
# UniProt Q92731, sequence (Q92731 whole entry, looked up): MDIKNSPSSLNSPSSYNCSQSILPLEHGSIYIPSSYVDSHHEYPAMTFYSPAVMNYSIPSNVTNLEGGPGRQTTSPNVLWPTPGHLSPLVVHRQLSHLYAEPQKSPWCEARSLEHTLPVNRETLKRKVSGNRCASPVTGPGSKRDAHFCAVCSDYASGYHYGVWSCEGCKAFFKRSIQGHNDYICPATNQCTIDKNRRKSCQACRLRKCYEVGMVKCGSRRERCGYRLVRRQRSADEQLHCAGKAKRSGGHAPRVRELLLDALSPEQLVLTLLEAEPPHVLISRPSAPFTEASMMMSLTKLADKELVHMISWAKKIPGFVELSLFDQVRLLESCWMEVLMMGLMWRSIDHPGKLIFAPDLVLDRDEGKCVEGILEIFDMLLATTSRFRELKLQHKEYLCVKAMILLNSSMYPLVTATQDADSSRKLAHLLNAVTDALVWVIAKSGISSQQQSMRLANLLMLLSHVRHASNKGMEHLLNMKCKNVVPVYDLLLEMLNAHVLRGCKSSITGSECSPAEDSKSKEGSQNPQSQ
# Procedure, shortened: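 Ratiometric beta-lactamase FRET read-out came after 2 h substrate loading at room temperature. It followed 16 h compound treatment at 37C of GripTite HEK293T cells carrying a UAS-bla reporter, plated in 2% charcoal-stripped FBS medium.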
# [2] = target: Estrogen receptor beta (Homo sapiens) (UniProt Q92731); assay: qHTS assay to identify small molecule antagonists of the estrogen receptor beta (ER-beta) signaling pathway (AID 1259378; active means well fitted inhibition curve with a large enough effect in the signal ratio in the repeat runs, not every such curve was filed as active; inconclusive means weak or mixed curves, or effect the other way; inactive means no such curve, though single readings can be large or run the other way; the % refers to the signal ratio; further: potency means the concentration at half of the fitted maximal effect; on activity, negative = inhibition: on the % scale 0 is the no-effect control and ±100 the full control effect); settings: ER-beta-UAS-bla HEK293T, beta-lactamase FRET ratio, 16 h; activity, negative = inhibition: at 92.4 µM (top of the series) unless noted
# Procedure, shortened: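 ER-beta-UAS-bla HEK293T cells in 2% charcoal-stripped FBS medium treated with compound plus 1nM final 17-beta-estradiol for 16 hr at 37C. Beta-lactamase reporter read by FRET substrate fluorescence after 2 hours at room temperature.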
# [3] = qHTS assay to identify small molecule agonists of the androgen receptor (AR) signaling pathway in the presence of an antagonist - cell viability counter screen (AID 1259379); settings: MDA-kb2 viability, CellTiter-Fluor, 16 h; series mostly up to 92.4 µM; further: potency means the concentration at half of the fitted maximal effect; nearly all actives have a fitted effect of over 25% in size
# Procedure, shortened: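 Seed MDA-kb2 at 3,000 cells/well; incubate 5 hr, 37C, 0% CO2. Add nilutamide to 3.0uM final, then pin compounds at 15 concentrations. Incubate 16 hr. Add CellTiter-Fluor at 15 hr, read fluorescence after 1 hr.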
# [4] = qHTS assay to identify small molecule agonists of the estrogen receptor beta (ER-beta) signaling pathway - cell viability counter screen (AID 1259380); settings: ER-beta-bla HEK293T viability, CellTiter-Glo luminescence, 16 h; series mostly up to 92.4 µM; further: nearly all actives have a fitted effect of over 30% in size; further: potency means the concentration at half of the fitted maximal effect
# Procedure, shortened: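 CellTiter-Glo read, 30 min RT, same wells as bla assay; cells ER-beta-UAS-bla HEK293T; 16 hr compound, 37C; medium 2% charcoal-stripped FBS.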
# [5] = qHTS assay to identify small molecule agonists or antagonists of the thyroid stimulating hormone receptor (TSHR) signaling pathway - wild type cell line counter screen (AID 1259384; calls by dose curve; further: on the % scale 0 is the no-effect control and ±100 the full control effect); settings: HEK293 wild type, cAMP HTRF counter-screen; cAMP activity change: at 92.4 µM (top of the series), active compounds read high unless noted
# Procedure, shortened: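 Wild-type Hek293 cells, 800/well, 18 h at 37C, then compound with Ro20-1724 for 30 min RT. cAMP by HTRF (cAMP-d2/anti-cAMP cryptate), 1 h RT, fluorescence read. 15 concentrations, triplicates.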
# [6] = target: Progesterone receptor (Homo sapiens) (UniProt P06401); assay: qHTS assay to identify small molecule agonists of the progesterone receptor (PR) signaling pathway (AID 1346784; calls by dose curve; further: nearly all actives have a fitted effect of over 30% in size; further: potency means the concentration at half of the fitted maximal effect; on activation: on the % scale 0 is the no-effect control and ±100 the full control effect); settings: PR-UAS-bla HEK293T, beta-lactamase FRET ratio, 16 h; activation: at 92.4 µM (top of the series) unless noted
# UniProt P06401, sequence (P06401 whole entry, looked up): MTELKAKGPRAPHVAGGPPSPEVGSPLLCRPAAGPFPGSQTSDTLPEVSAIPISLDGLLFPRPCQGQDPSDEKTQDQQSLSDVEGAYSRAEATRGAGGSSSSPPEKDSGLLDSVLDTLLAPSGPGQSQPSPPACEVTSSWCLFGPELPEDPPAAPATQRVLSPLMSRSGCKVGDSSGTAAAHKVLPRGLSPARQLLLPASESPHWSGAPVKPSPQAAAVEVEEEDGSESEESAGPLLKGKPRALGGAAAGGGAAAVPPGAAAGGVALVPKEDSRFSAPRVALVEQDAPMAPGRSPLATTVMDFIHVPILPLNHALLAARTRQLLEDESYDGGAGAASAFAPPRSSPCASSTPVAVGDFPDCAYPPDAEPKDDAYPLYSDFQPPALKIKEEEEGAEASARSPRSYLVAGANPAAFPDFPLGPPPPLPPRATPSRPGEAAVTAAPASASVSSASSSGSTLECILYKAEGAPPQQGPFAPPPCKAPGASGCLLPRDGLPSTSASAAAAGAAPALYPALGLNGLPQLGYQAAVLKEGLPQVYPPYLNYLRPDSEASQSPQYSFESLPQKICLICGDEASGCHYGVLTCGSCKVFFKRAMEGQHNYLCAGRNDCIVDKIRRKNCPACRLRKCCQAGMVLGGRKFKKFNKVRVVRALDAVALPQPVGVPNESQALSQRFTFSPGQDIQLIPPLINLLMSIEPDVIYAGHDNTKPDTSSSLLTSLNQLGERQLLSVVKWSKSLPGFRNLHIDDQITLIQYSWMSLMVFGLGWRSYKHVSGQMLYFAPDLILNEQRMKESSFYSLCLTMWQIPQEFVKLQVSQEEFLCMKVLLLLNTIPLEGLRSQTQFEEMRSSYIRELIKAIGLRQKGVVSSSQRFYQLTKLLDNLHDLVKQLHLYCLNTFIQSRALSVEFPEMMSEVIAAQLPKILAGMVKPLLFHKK
# Procedure, shortened: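 Agonist qHTS: compounds pinned onto 3,000 PR-UAS-bla HEK 293T cells per well in charcoal-stripped serum medium, 16hr at 37C, then beta-lactamase activity measured by LiveBLAzer FRET fluorescence after 2 hours at room temperature.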
# [7] = target: Progesterone receptor (Homo sapiens) (UniProt P06401); assay: qHTS assay to identify small molecule antagonists of the progesterone receptor (PR) signaling pathway (AID 1346795; active means well fitted inhibition curve with a large enough effect in the signal ratio in the repeat runs, not every such curve was filed as active; inconclusive means weak or mixed curves; the % refers to the signal ratio; further: potency means the concentration at half of the fitted maximal effect); settings: PR-UAS-bla HEK293T, beta-lactamase FRET ratio, 16 h; activity change, negative = inhibition: at 92.4 µM (top of the series) unless noted
# Procedure, shortened: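 Antagonist mode with agonist R5020 at 1 nM final and 16 hr incubation at 37C. Reporter was beta-lactamase driven by UAS in HEK293T (PR-UAS-bla), 2% charcoal-stripped serum; signal from LiveBLAzer FRET substrate, 2 hr at room temperature.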
# [8] = target: Thyrotropin-releasing hormone receptor (Homo sapiens) (UniProt P34981); assay: qHTS assay to identify small molecule antagonists of the thyrotropin-releasing hormone receptor (TRHR) signaling pathway (AID 1346877; active means well fitted inhibition curve with a large enough effect in the repeat runs, not every such curve was filed as active; inconclusive means weak or mixed curves; further: potency means the concentration at half of the fitted maximal effect); settings: TRHR-HEK293, TRH-induced calcium fluorescence, antagonist mode; series mostly up to 51.3 µM
# UniProt P34981, sequence (P34981 whole entry, looked up): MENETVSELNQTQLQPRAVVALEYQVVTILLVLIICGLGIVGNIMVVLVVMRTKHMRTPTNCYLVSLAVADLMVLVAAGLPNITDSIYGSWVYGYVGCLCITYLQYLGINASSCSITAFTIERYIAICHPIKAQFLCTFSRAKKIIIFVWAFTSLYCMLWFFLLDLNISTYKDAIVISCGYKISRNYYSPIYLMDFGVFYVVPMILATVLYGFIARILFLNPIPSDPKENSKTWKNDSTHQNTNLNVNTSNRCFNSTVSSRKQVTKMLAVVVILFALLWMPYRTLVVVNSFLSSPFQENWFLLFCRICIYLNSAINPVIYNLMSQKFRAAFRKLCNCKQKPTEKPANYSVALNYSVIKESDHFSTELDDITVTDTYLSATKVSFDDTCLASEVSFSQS
# Procedure, shortened: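 Following an 18 h incubation at 37 °C and a 2 h calcium dye load, TRHR-HEK293 cells were exposed to compound (5 min, room temperature) and challenged with TRH, 1 nM final.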
# [9] = qHTS assay to identify small molecule antagonists of the TGF-beta/Smad signaling pathway (AID 1346924; active means well fitted inhibition curve with a large enough effect in the signal ratio in the repeat runs, not every such curve was filed as active; inconclusive means weak or mixed curves; the % refers to the signal ratio; further: potency means the concentration at half of the fitted maximal effect); settings: SBE-bla HEK293T, TGF-beta/Smad reporter, beta-lactamase ratio; activity, negative = inhibition: at 76.8 µM (top of the series) unless noted
# Procedure, shortened: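 SBE-bla HEK 293T cells were plated overnight, then received compound in DMSO plus TGF-beta1 (added as a 0.25 ng/mL solution) and were incubated 5 h at 37 C. Beta-lactamase reporter activity was read after 2 h at room temperature with LiveBLAzer B/G FRET substrate (ex 405, em 460/530 nm).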
# [10] = qHTS assay to identify small molecule agonists of the estrogen receptor alpha (ER-alpha) signaling pathway in the presence of an antagonist - cell viability counter screen (AID 1259386); settings: VM7Luc4E2 viability, CellTiter-Fluor fluorescence, 22 h; series mostly up to 92.4 µM;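 further: potency means the concentration at half of the fitted maximal effect; cells exposed to compounds for 22 h at 37 °C before the viability read; nearly all actives have a fitted effect of over 30% in size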
# Procedure, shortened: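 Viability counter screen using VM7Luc4E2 (full-length ER-alpha, four ERE-luciferase). The cells were treated with compounds alongside ICI-182,780 10.0nM for 22hr, and live-cell protease fluorescence was quantified with CellTiter-Fluor.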
# [11] = qHTS assay to identify small molecule agonists of the progesterone receptor (PR) signaling pathway - cell viability counter screen (AID 1346799; calls by dose curve; further: potency means the concentration at half of the fitted maximal effect; nearly all actives have a fitted effect of over 45% in size); settings: PR-UAS-bla HEK293T viability, CellTiter-Glo luminescence, 16 h; series mostly up to 92.4 µM
# Procedure, shortened: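 Cytotoxicity measured by CellTiter-Glo luminescence (30 min, RT) in the same wells as the PR beta-lactamase agonist read. Those HEK293T cells had 16 h compound treatment at 37 C in 2% charcoal-stripped FBS medium.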
# [12] = target: Estrogen receptor (Homo sapiens) (UniProt P03372); assay: qHTS assay to identify small molecule agonists of the estrogen receptor alpha (ER-alpha) signaling pathway in the presence of an antagonist (AID 1259383; calls by dose curve; further: potency means the concentration at half of the fitted maximal effect; nearly all actives have a fitted effect of over 15% in size); settings: VM7Luc4E2 cells, ERE-luciferase, +ICI-182,780, 22 h; series mostly up to 92.4 µM
# UniProt P03372, sequence (P03372 whole entry, looked up): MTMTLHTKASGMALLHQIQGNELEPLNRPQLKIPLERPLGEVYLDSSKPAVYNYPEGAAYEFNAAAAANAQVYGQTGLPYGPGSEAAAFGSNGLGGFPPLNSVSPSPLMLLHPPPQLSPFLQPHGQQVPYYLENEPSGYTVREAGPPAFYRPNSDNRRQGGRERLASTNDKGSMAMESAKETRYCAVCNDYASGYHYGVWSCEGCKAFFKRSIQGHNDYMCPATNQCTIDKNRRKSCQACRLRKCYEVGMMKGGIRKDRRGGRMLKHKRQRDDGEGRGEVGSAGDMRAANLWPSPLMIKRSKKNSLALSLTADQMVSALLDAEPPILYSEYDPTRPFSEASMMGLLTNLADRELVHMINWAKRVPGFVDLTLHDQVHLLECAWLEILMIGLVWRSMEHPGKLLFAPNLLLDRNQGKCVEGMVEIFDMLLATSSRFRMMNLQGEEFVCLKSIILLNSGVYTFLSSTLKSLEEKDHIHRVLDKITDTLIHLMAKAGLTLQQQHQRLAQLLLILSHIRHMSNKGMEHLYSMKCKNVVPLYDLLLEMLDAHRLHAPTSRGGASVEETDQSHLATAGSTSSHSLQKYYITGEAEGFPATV
# Procedure, shortened: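 Stably transfected VM7Luc4E2 reporter cells, kept 5 days in charcoal-stripped serum, received ICI-182,780 at 10.0nM final before compound addition. Following 22hr incubation at 37C and 5% CO2, luciferase signal was read by luminescence.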
# [13] = qHTS assay to identify small molecule antagonists of the progesterone receptor (PR) signaling pathway - cell viability counter screen (AID 1346798); settings: PR-UAS-bla HEK293T viability, CellTiter-Glo luminescence, 16 h; series mostly up to 92.4 µM; further: nearly all actives have a fitted effect of over 50% in size; further: potency means the concentration at half of the fitted maximal effect
# Procedure, shortened: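 Cytotoxicity read as CellTiter-Glo luminescence (30 min, room temperature) in the same wells as the beta-lactamase readout. HEK293T PR-UAS-bla cells in charcoal-stripped 2% FBS received compound and R5020, then 16 h at 37C, 5% CO2.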
# [14] = qHTS assay to identify small molecule antagonists of the estrogen receptor beta (ER-beta) signaling pathway - cell viability counter screen (AID 1259382); settings: ER-beta-UAS-bla HEK293T viability, CellTiter-Glo luminescence, 16 h; series mostly up to 92.4 µM; further: potency means the concentration at half of the fitted maximal effect; nearly all actives have a fitted effect of over 55% in size
# Procedure, shortened: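 In this multiplexed counter screen, cells were seeded at 2,000 per well in medium with 2% charcoal-stripped FBS and incubated 6 hr before compound and 1nM final E2 were added. Sixteen hours later, ATP-based luminescence reported viability.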
# [15] = target: Thyrotropin receptor (Homo sapiens) (UniProt P16473); assay: qHTS assay to identify small molecule antagonists of the thyroid stimulating hormone receptor (TSHR) signaling pathway (AID 1259385; calls by dose curve; further: potency means the concentration at half of the fitted maximal effect; nearly all actives have a fitted effect of over 20% in size); settings: TSHR-HEK293 cAMP HTRF, TSH-stimulated antagonist mode; activity change, negative = inhibition: at 92.4 µM (top of the series) unless noted
# UniProt P16473, sequence (P16473 whole entry, looked up): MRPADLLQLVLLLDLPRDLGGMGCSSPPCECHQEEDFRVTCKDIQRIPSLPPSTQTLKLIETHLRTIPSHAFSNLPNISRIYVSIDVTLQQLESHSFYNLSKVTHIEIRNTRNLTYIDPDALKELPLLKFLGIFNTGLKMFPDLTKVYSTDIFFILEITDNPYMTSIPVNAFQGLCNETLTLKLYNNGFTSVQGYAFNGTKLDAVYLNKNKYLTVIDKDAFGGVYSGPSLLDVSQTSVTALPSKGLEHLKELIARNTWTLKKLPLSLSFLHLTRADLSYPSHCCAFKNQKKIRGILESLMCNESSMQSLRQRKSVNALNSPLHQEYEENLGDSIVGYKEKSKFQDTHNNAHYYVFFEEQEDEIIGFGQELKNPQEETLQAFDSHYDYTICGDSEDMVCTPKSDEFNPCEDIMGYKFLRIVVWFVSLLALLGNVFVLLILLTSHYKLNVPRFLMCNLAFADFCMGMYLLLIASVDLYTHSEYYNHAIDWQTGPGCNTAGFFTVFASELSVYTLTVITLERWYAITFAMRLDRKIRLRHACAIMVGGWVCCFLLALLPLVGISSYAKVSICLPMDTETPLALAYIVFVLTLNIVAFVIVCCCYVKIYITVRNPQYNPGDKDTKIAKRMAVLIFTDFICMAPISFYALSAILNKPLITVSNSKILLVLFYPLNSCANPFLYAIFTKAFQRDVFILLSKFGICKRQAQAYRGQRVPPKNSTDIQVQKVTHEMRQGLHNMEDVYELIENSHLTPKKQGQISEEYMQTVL
# Procedure, shortened: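 TSHR-HEK293 cells (800/well) plated 18 h, then compounds with Ro20-1724 and TSH at 1.5 ng/mL final, 30 min at room temperature. cAMP quantified by HTRF (cAMP-d2/anti-cAMP-cryptate, 1 h); 15 concentrations in triplicate.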
# [16] = qHTS assay to identify small molecule antagonists of the TGF-beta/Smad signaling pathway - cell viability counter screen (AID 1346824); settings: SBE-bla HEK293T viability, CellTiter-Glo luminescence; series mostly up to 35.3 µM; further: potency means the concentration at half of the fitted maximal effect; nearly all actives have a fitted effect of over 50% in size
# Procedure, shortened: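 SBE-bla HEK 293T cells, incubated overnight, then compound plus 0.25 ng/mL TGF-beta1 (stock added) for 5 hr at 37 C. Viability was read in the same wells by CellTiter-Glo luminescence after 30 min at room temperature.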
# [17] = qHTS assay to identify small molecule agonists of the TGF-beta/Smad signaling pathway - cell viability counter screen (AID 1346829); settings: SBE-bla HEK293T viability, CellTiter-Glo luminescence, 5 h; series mostly up to 76.8 µM; further: potency means the concentration at half of the fitted maximal effect; nearly all actives have a fitted effect of over 45% in size
# Procedure, shortened: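 HEK 293T SBE-bla line, 5 hr compound exposure at 37 C, multiplexed CellTiter-Glo viability read by luminescence.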
# Tags describe the fitted curve by direction and shape or compound fluorescence and quenching.
compound,measurement,setting,value
O=C1OC2(c3ccc(O)cc3Oc3cc(O)ccc32)c2ccccc21,Potency,[1],"inconclusive: 54.5 µM [rising, partial curve] and inconclusive: 26.6 µM [rising, partial curve]"
same,Potency,[2],"inconclusive: 54.5 µM [rising, partial curve] and inconclusive: 26.6 µM [rising, partial curve]"
same,Potency,[3],"inconclusive: 21.7 µM [rising, partial curve] and inconclusive: 21.1 µM [rising, partial curve]"
same,Potency,[4],inactive
same,Potency,[5],inactive
same,Potency,[6],"inconclusive: 54.5 µM [rising, partial curve] and inconclusive: 10.6 µM [rising, partial curve]"
same,Potency,[7],"inconclusive: 54.5 µM [rising, partial curve] and inconclusive: 13.3 µM [rising, partial curve]"
same,Potency,[8],active: 536 nM and active: 3.7 µM
same,Potency,[9],"inconclusive: 43.6 µM [rising, partial curve] and inconclusive: 23.9 µM [rising, partial curve]"
CC(=O)N/N=C/c1ccc([N+](=O)[O-])o1,activation,[1],inconclusive: 6.41% [at 42.5 µM]
Oc1c(I)cc(I)c2cccnc12,Potency,[1],"inconclusive: 16.8 µM [rising, full curve, poor fit]"
same,Potency,[2],active: 6.68 µM
same,Potency,[3],"inconclusive: 26.6 µM [cytotoxic, partial curve]"
same,Potency,[4],"inconclusive: 6.68 µM [cytotoxic, partial curve]"
same,Potency,[10],"inconclusive: 33.5 µM [cytotoxic, single point]"
same,Potency,[7],active: 7.5 µM
same,Potency,[11],"inconclusive: 6.68 µM [rising, partial curve]"
same,"activity, negative = inhibition",[9],inconclusive: -10.1% [at 35.3 µM]
O=C(OCc1ccccc1)c1ccc(O)cc1,Potency,[1],"inconclusive: 12.2 µM [activator, full curve, poor fit]"
same,activation,[1],inconclusive: 4.57% [at 42.5 µM]
same,Potency,[2],active: 19.3 µM
same,"activity, negative = inhibition",[2],inconclusive: -20.6% [at 42.5 µM]
same,Potency,[12],active: 30.6 µM and active: 29.8 µM
same,activation,[6],inconclusive: 1.21%
same,Potency,[7],active: 34.4 µM and active: 26.6 µM
same,"activity, negative = inhibition",[9],inconclusive: 0.443%
CCCCCCC(=O)c1ccccc1,activation,[1],inconclusive: 9.2%
O=c1cc(-c2ccccc2)oc2cc(O)cc(O)c12,Potency,[1],inconclusive: 15.4 µM [fluorescent]
same,Potency,[2],"inconclusive: 15.4 µM [rising, full curve]"
same,Potency,[3],active: 48.6 µM
same,Potency,[4],"inconclusive: 30.6 µM [cytotoxic, partial curve]"
same,Potency,[10],active: 48.6 µM
same,activation,[6],inconclusive: -17%
same,Potency,[7],"inconclusive: 21.7 µM [rising, partial curve]"
same,Potency,[13],"inconclusive: 43.3 µM [cytotoxic, single point]"
same,Potency,[11],"inconclusive: 68.6 µM [cytotoxic, single point]"
same,"activity, negative = inhibition",[9],inconclusive: 3.38%
CC(C)C[C@H](NC(=O)[C@H](CCc1ccccc1)NC(=O)CN1CCOCC1)C(=O)N[C@@H](Cc1ccccc1)C(=O)N[C@@H](CC(C)C)C(=O)[C@@]1(C)CO1,Potency,[1],"inconclusive: 0.944 µM [rising, full curve]"
same,Potency,[2],"inconclusive: 0.944 µM [rising, full curve]"
same,Potency,[3],active: 1.19 µM
same,Potency,[4],active: 0.266 µM
same,Potency,[14],"inconclusive: 0.376 µM [cytotoxic, full curve]"
same,Potency,[6],"inconclusive: 2.37 µM [rising, full curve]"
same,Potency,[7],"inconclusive: 0.531 µM [rising, full curve]"
same,Potency,[13],inactive
same,Potency,[11],"inconclusive: 0.237 µM [rising, full curve]"
same,"activity, negative = inhibition",[9],inconclusive: 4.08% [at 35.3 µM]
O=c1[nH]ncc2ccccc12,Potency,[1],inactive
CCc1cccc(O)c1,Potency,[1],"inconclusive: 22.3 µM [activator, partial curve, poor fit]"
Cc1ccc(N/N=c2\c(=O)cc/c(=N\Nc3ccc(S(=O)(=O)O)cc3)c2=O)c(C)c1,Potency,[1],inactive
CCCCCCOC(=O)NC(=N)c1ccc(NCc2nc3cc(C(=O)N(CCC(=O)OCC)c4ccccn4)ccc3n2C)cc1,Potency,[1],"inconclusive: 13.3 µM [rising, full curve]"
same,Potency,[2],"inconclusive: 16.8 µM [rising, partial curve]"
same,Potency,[3],"inconclusive: 33.5 µM [cytotoxic, single point]"
same,Potency,[4],active: 11.9 µM
same,Potency,[15],active: 29.8 µM
same,Potency,[10],active: 26.6 µM
same,Potency,[7],"inconclusive: 13.3 µM [rising, single point]"
same,Potency,[13],active: 21.1 µM
same,Potency,[11],active: 18.8 µM
same,Potency,[16],"inconclusive: 21.3 µM [cytotoxic, single point]"
same,Potency,[17],"inconclusive: 26.8 µM [cytotoxic, single point]"
